# Among all 310,000 compounds or so, about 14,000 (4.5%) showed an effect of 50% or more. The effect is printed as a negative number. Some of the results follow.
# Target: human ether-à-go-go-related gene (hERG) potassium channel (human, UniProt Q12809)
# Test: primary screen, population patch clamp on CHO cells stably expressing hERG
# 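Also: peak tail current of the secondary pulse compared with the same well before compound.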
# Sequence of human ether-à-go-go-related gene (hERG) potassium channel (Q12809 whole entry, looked up): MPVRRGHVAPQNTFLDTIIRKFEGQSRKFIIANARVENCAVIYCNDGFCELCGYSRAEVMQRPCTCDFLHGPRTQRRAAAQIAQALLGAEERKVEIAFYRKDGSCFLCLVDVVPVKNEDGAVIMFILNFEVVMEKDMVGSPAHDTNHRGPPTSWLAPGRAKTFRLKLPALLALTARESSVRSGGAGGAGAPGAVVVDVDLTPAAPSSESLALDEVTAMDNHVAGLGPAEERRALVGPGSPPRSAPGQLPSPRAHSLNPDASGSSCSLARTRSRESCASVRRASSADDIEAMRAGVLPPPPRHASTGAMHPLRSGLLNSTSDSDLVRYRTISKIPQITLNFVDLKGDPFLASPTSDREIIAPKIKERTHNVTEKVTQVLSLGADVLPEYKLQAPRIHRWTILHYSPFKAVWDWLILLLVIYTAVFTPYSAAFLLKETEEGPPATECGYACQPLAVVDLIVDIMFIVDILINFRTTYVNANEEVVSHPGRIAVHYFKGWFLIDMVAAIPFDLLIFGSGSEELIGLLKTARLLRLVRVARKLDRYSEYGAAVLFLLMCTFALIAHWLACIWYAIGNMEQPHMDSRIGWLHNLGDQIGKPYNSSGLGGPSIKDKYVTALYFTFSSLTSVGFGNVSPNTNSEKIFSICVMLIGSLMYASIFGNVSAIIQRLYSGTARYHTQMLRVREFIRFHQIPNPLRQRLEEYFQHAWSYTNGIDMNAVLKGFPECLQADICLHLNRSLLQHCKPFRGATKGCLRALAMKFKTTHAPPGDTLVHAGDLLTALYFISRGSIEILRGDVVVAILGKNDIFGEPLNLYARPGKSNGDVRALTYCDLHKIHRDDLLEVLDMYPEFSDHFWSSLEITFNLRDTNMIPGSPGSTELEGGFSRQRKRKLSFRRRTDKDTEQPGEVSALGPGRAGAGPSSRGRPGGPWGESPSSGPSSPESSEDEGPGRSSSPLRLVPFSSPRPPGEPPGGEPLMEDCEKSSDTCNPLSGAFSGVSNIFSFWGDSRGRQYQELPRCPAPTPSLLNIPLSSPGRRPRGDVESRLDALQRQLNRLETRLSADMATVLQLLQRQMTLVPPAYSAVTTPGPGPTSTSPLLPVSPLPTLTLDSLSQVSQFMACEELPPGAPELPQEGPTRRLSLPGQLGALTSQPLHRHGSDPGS
row,Compound,"hERG current change (%, negative = inhibition) at 10uM [%]"
1,COc1ccc(C(=O)Nc2cc(OC)cc(OC)c2)cc1,-14.7
2,COC(=O)c1ccc(Cn2nnc3ccccc32)cc1,0.685
3,COC(=O)c1ccc(OC)c(CSc2nnc(COc3ccc(Cl)cc3)o2)c1,-23.7
4,CC(=O)c1c(C)[nH]c(C(=O)COC(=O)CN(C)S(=O)(=O)c2ccc(Cl)cc2)c1C,-57.8
5,CSc1ccccc1NC(=O)CN(C)CC(=O)Nc1ccc(N2CCOCC2)cc1,18.9
6,COC(=O)C1C(c2ccc(Br)cc2)Nc2nnc(C(F)(F)F)n2C1(C)O.Cl (centres unmarked),26.1
7,O=C(O)Cc1ccc(NC(=O)Cc2ccc3ccccc3c2)cc1,12.8
8,COc1ccc(S(=O)(=O)NCC2CCC(C(=O)NCCCN3CCCC3=O)CC2)cc1 (centres unmarked),16.8
9,COc1ccc([N+](=O)[O-])cc1N(CC(O)CN(CC(C)C)CC(C)C)S(=O)(=O)c1ccccc1 (centres unmarked),-1.91
10,CCCN1Cc2cccc(C(=O)NCCc3cccc(C)c3)c2C1=O,-33
11,Cc1cc(Nc2ccc(C)c(C)c2)c2ccccc2n1,-66.9
12,Nn1cc(-c2ccccc2)nc1SCC(=O)N1CCN(S(=O)(=O)c2ccc(Cl)cc2)CC1,-5.18
13,Cc1ccc(/C=N/NC(=O)c2ccc3nc[nH]c3c2)o1,10.6
14,COc1ccc2c(=O)cc(-c3cccnc3)oc2c1OC,8.9
15,CCC(C)(C)n1c(=O)[nH]c2c(c1=O)CCC2,6.59
16,CC(C)(C)OC(=O)N1CCN(c2ccc(CNC(=O)c3ccc(Cl)cc3)cc2)CC1,-9.78
17,Cc1ccc(C(=O)Nc2ccc(NC(=O)c3ccco3)c(C)c2)cc1,14.7
18,Cc1ccccc1NC(=O)c1ccc(NC(=O)C2CCCO2)cc1 (centres unmarked),6.18
19,O=[N+]([O-])c1ccc(S(=O)(=O)Nc2cccc(-c3ccc(N4CCCC4)nn3)c2)cc1,1.96

row,Compound,"hERG current change (%, negative = inhibition) at 10uM [%]"
1,CCN(Cc1ccccc1)Cc1nnnn1Cc1ccccc1,-18.7
2,CC(=O)c1cccc(NC(=O)/C(=C\c2ccco2)NC(=O)c2cccs2)c1,-9.8
3,CN(C(=O)c1ccccc1Br)C1CCS(=O)(=O)C1 (centres unmarked),-3.44
4,Cc1ccc(C)c(CN2CCC(n3nccc3NC(=O)CCCc3ccccc3)CC2)c1,-54.8
5,Cc1ccc(NC(=O)N(C)c2ccccc2)cc1,13.3
6,COc1ccc(CCNS(=O)(=O)c2ccc3c(c2)OCCO3)cc1OC,15
7,CCCNC(=O)c1nc2ncc(Br)cn2n1,-31.1
8,COCCCN1C(=O)N(c2ccccc2)C(=O)C1CC(=O)Nc1ccc(F)cc1 (centres unmarked),15.8
9,CC1CC(C)(C)N(C(=O)CN2C(=O)CCC2=O)c2ccccc21 (centres unmarked),8.35
10,CCCCCCCNC(=O)C1(CC2CC(c3ccc(Cl)cc3)=NO2)CCN(C(=O)c2cc(OCC)c(OCC)c(OCC)c2)CC1 (centres unmarked),17.6
11,Cc1ccc(N(CC(=O)N(C)Cc2ccccc2)S(C)(=O)=O)cc1C,-3.3
12,CC(C)(C)OC(=O)NCCCCC1=CC2=CC(=O)C(C)(OC(=O)c3cnc4ccccc4n3)C(=O)C2=CO1 (centres unmarked),17.2
13,COc1cc(NC(=O)c2cnc(N)o2)cc(C(=O)Nc2cccc(C(F)(F)F)c2)c1,-13.5
14,CC1(C(=O)OCC(=O)NC(=O)c2ccccc2)CC1(Cl)Cl (centres unmarked),5.88
15,Cc1[nH]c2c(C)cccc2c(=O)c1CN1CCCCCC1,-15.6
16,O=C(Cc1ccccc1Cl)Nc1ccc(S(=O)(=O)N2CCOCC2)cc1,2.29
17,CC(C)OP(=O)(OC(C)C)C(Nc1cccc(C(=O)O)c1)c1ccccc1 (centres unmarked),8.37
18,O=C([O-])CC(=O)NC12CC3CC(CC(C3)C1)C2.[Na+],14.3
19,Cc1ccc(N2C(=O)C(Cl)=C(NCc3ccccc3)C2=O)c(C)c1,-1.37

row,Compound,"hERG current change (%, negative = inhibition) at 10uM [%]"
1,CCC1CCCCN1CCCNC(=O)c1cn(C)c2ccc(S(=O)(=O)N(C)C3CCCCC3)cc2c1=O (centres unmarked),-62.8
2,Cc1ccc(C(=O)NS(=O)(=O)c2ccc(N=NN(C)C)cc2)cc1,6.7
3,CCC1CN(S(=O)(=O)c2cc(-c3cc(C)no3)ccc2OC)c2cc(C)ccc2O1 (centres unmarked),-11.5
4,CCOc1ccccc1CN1C(=O)C2(OCCO2)c2ccccc21,-2.35
5,CC(=O)c1cn(CC(=O)Nc2ccccc2C)c2ccccc12,20.3
6,O=C(CSc1nnc(CNc2ccccc2)o1)N1CCc2ccccc21,0.222
7,Cc1ccc(S(=O)(=O)CCC(=O)Nc2cccc(C)c2)cc1,3.33
8,Cc1ccc(NC2CCCN(C(=O)CN3C(=O)CSC3=O)C2)cc1C (centres unmarked),-7.29
9,Clc1ccccc1OCCCCN1CCNCC1.O=C(O)C(=O)O,12.7
10,COc1cc(S(=O)(=O)N2CC(=O)Nc3ccccc32)ccc1NC(C)=O,10.5
11,Cc1ccn(-c2ccc(NC(=O)c3cccs3)cc2)n1,22.9
12,Cc1cccc(C)c1NC(=O)COC(=O)c1ccccc1Nc1ccccc1,20.5
13,NC(=O)CC(NC(=O)c1cccc(Br)c1)c1ccc(N2CCC(Br)CC2)c([N+](=O)[O-])c1 (centres unmarked),-1.53
14,Cc1ccc(/C=N/n2cnnc2)s1,-35.8
15,COc1ccc(CNC(=O)Nc2cc(C)cc(C)c2)cc1,13.3
16,Cc1ccc(S(=O)(=O)N2CCN(S(=O)(=O)N3CCOCC3)CC2)cc1C,1.37
17,CCSC1=NC2(CCCCC2)[NH2+]c2sc3c(c21)CCCC3.[I-],10.6
18,Cc1cccc(N2N=C(C(=O)N3CC(=O)Nc4ccccc43)CCC2=O)c1,16.4

# From article PMC4336329 (PLoS ONE, 2015)
